From publication PMC4336329 (PLoS ONE, 2015)
Out of some 310,000 compounds screened, about 14,000 (4.5%) showed an effect of 50% or more. The effect is printed as a negative number. The list shows a part of the results.

Each compound was assayed against human ether-à-go-go-related gene (hERG) potassium channel (human, UniProt Q12809) (assay: primary screen, population patch clamp on CHO cells stably expressing hERG).
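Note: peak tail current of the secondary pulse compared with the same well before compound.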

Sequence of human ether-à-go-go-related gene (hERG) potassium channel (Q12809 whole entry, looked up): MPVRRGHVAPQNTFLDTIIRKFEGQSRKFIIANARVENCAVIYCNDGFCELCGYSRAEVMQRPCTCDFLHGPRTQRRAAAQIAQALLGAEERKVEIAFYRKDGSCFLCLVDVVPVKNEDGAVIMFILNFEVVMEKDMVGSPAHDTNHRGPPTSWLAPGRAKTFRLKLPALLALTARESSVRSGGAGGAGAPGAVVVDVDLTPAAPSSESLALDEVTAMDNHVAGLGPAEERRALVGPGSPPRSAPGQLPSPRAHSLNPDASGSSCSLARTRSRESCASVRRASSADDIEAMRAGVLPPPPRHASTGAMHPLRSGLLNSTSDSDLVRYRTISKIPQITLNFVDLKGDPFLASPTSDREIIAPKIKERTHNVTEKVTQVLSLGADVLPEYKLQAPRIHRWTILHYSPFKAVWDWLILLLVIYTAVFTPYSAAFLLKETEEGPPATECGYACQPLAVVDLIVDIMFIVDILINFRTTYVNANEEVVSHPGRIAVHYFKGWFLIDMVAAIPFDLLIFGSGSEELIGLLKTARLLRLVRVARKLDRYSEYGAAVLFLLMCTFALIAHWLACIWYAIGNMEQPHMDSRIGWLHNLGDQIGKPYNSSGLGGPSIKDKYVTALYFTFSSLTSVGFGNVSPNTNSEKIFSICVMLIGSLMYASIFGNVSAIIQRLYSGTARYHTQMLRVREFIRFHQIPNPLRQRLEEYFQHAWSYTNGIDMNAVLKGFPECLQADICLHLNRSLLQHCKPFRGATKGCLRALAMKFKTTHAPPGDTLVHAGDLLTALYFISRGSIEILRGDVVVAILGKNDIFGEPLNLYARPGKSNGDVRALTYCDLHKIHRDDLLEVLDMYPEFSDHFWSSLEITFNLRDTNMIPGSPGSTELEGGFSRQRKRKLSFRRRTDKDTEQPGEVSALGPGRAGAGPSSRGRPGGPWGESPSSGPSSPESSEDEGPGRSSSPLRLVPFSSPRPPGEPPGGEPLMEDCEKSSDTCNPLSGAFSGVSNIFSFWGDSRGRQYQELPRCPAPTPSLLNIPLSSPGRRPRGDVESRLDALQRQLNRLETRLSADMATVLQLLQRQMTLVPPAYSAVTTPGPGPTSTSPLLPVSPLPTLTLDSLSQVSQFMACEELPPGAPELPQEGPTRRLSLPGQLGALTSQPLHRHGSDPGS

Point of comparison: CCOC(=O)N1CCN(S(=O)(=O)c2ccc3c(c2)oc(=O)n3C)CC1, “hERG current change (%, negative = inhibition) at 10uM” value -0.295%. Against it:
- COc1ccccc1NS(=O)(=O)c1cc(NC(=O)c2sc3cc(Cl)ccc3c2Cl)ccc1C — higher, 22.6%
- O=C(COC(=O)c1ccccn1)c1ccc(Br)cc1 — lower, -9.52%
- CCC(c1nnc(SCC(=O)NC2CCCCC2)n1Cc1ccccc1)N(C)C (stereo not drawn) — lower, -2.1%
- Cc1nc(-c2cccc(S(=O)(=O)N3CC(C)OC(C)C3)c2)cs1 (stereo not drawn) — lower, -6.6%
- CCOC(=O)NN1C(=O)c2ccccc2NC1c1ccc(OC)c(OC)c1 (stereo not drawn) — higher, 28.6%
- CC(=O)Oc1ccc(C(=O)Nc2ccccc2C(=O)N2CCCCC2)cc1 — higher, 8.94%
- CC(C)(C)OC(=O)NCc1ccc(NC(=O)c2nc[nH]c2C(=O)N[C@@H](Cc2ccccc2)C(=O)OC(C)(C)C)cc1 — higher, 4.48%
- CCOC(=O)N1CCN(C(=O)CCCn2c(=S)[nH]c3ccccc3c2=O)CC1 — higher, 0.159%
- O=S(=O)(c1ccc(Br)s1)N1CCC2(CC1)OCCO2 — lower, -0.779%
- CCCCCCn1c(=O)c(C(=O)Nc2cnccn2)c(O)c2ccccc21 — higher, 1.2%
- Cc1ccc(-c2csc(N=C(N)N)n2)c(C)c1 — lower, -4.83%
- CN(CCNC(=O)c1cccc(N2CCCC2=O)c1)Cc1ccccc1 — lower, -1.38%
- CCOc1c2ccc(C(=O)NCCc3ccc(C)cc3)cc2nn1CC — lower, -7.45%
- Cc1cc(NC(=O)CN(C)S(=O)(=O)c2ccc(-c3ccc(=O)[nH]n3)s2)ccc1Br — higher, 7.95%
- CC(C)CCN1CC(C(=O)N2CCN(c3ccc(F)cc3)CC2)CC1=O (stereo not drawn) — lower, -25.4%
- COCCNC(=O)c1cc(Sc2nnc(C)s2)nc2ccccc12 — lower, -18.2%
- NC1=NS(=O)(=O)NC1c1ccc(F)cc1 (stereo not drawn) — higher, 15%
- O=C1NC(=Nc2ccc3ccccc3c2)S/C1=C/c1ccco1 — higher, 11.8%
- CC1(C)CC(CC(=O)O)(c2ccc(Cl)cc2)CCO1 (stereo not drawn) — lower, -3.8%
- CC(=O)NC(CC(=O)Nc1nccs1)c1ccccc1.O=C(O)C(=O)O (stereo not drawn) — higher, 1.49%
- Cn1cnc([N+](=O)[O-])c1Oc1cccc(O)c1 — higher, 8.43%
- CCOC(=O)C(CC)n1cnc2sc3c(c2c1=O)CCC3 (stereo not drawn) — higher, 3.75%
- COc1ccc(NCCc2ccccn2)cc1.Cl — higher, 12.4%
- COc1ccc(C(=O)Nc2cccc(S(C)(=O)=O)c2)cc1OC — higher, 6.89%
- Cc1cc(C)cc(C(=O)N2CCC(CCC(=O)NC3CC3)CC2)c1 — lower, -2.09%
- COc1ccc(NC2CC(=O)N(c3cc([N+](=O)[O-])ccc3C)C2=O)cc1 (stereo not drawn) — lower, -19.9%
- CCO[C@H]1OC(C(=O)N2CCN(Cc3ccccc3)CC2)=C[C@@H](c2coc3ccccc3c2=O)[C@@H]1CCCO — lower, -27%
- COc1ccc(OC)c(S(=O)(=O)N2c3ccccc3CC2C)c1 (stereo not drawn) — lower, -0.963%
- C/C(=N\NC(=O)c1ccn(C)n1)c1ccc(NC(=O)c2cccc(F)c2)cc1 — higher, 8.11%
- CCOC(=O)c1nnn(-c2nonc2N)c1COc1ccccc1 — lower, -37.7%
- COc1ccc(CN(Cc2cccn2C)S(=O)(=O)c2cccc(C(F)(F)F)c2)cc1 — higher, 3.63%
- Cc1cc(OCC(=O)OC(C)(C)C)c2c3c(c(=O)oc2c1)CCC3 — higher, 5.64%
- COc1cc(O)ccc1/C=N/NC(=O)c1ccc([N+](=O)[O-])cc1 — higher, 5.84%
- COc1ccc(NC(C)=O)cc1NC(C)C(=O)Nc1cc(C(F)(F)F)ccc1N1CCOCC1 (stereo not drawn) — lower, -60.1%
- Cc1ccc(S(=O)(=O)N(C)CC(=O)N2CCN(C(=O)c3ccco3)CC2)cc1.Cl — lower, -49.8%
- COC(=O)CCCC1=CC2=CC(=O)C(C)(OC(=O)C3CCCC3)C(=O)C2=CO1 (stereo not drawn) — higher, 8.82%
- O=C(CN1C(=O)/C(=C/c2ccccc2F)Sc2ccccc21)N1CCN(c2ccccn2)CC1 — higher, 13.3%
- O=S(=O)(c1ccccc1Cl)N1CCCC1c1nc(-c2ccc(Cl)cc2)no1 (stereo not drawn) — higher, 19.9%
- O=C(CN1C(=O)NC2(CCCCCCC2)C1=O)NCc1cccs1 — higher, 7.8%
- Cc1ccc(N(C(=O)NC2CCCCC2)C2=NCCCCC2)cc1 — higher, 18.2%
- COc1ccc(CCNC(=O)CCC(=O)c2cccs2)cc1OC — higher, 19.3%
- Cc1c(NC(=S)NNC(=O)CCC(=O)O)c(=O)n(-c2ccccc2)n1C — lower, -1.62%
- Cc1c(NC(=O)Nc2ccc(Cl)c(Cl)c2)sc(=S)n1C — lower, -5.64%
- Cc1ccc2c(c1)NC(=O)C(CC(=O)NCc1cccnc1)O2 (stereo not drawn) — lower, -8.29%
